Experimental data as given in patent US20170073386A1 (AstraZeneca / MedImmune, published 2017).

T1: human GITR expressed on cells (human, UniProt Q9Y5U5 26-241)
T1 sequence: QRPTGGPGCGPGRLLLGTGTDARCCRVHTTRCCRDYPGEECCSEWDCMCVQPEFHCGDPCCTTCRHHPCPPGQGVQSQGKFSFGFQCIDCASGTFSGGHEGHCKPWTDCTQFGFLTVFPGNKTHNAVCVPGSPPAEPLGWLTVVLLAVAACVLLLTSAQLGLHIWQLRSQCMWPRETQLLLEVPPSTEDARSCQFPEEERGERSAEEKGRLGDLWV

T2: recombinant human GITR (human, UniProt Q9Y5U5 26-162)
T2 sequence: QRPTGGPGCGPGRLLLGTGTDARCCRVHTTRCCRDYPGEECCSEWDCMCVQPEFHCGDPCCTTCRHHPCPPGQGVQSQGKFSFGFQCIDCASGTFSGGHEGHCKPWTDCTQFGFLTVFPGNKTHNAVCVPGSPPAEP

B1: hexameric GITRL IgG4P FP comprising monomeric subunits of SEQ ID NO: 40 (Fc fusion)
chain: [human IgG4 Fc with S228P (EU numbers) omitted here]GGGGSGGGGSGGGGSGGGGSGGGGSVSRLEEEMRKLQATVQELQKRLDRLEETVQAKGGGGQLETAKEPCMAKFGPLPSKWQMASSEPPCVNKVSDWKLEILQNGLYLIYGQVAPNANYNDVAPFEVRLYKNKDMIQTLTNKSKIQNVGGTYELHVGDTIDLIFNSEHQVLKDNTYWGIILLANPQFIS
B2: hexameric GITRL IgG1 FP comprising monomeric subunits of SEQ ID NO: 6 (Fc fusion)
chain: [human IgG1 Fc omitted here]GGGGSGGGGSGGGGSGGGGSGGGGSVSRLEEEMRKLQATVQELQKRLDRLEETVQAKGGGGQLETAKEPCMAKFGPLPSKWQMASSEPPCVNKVSDWKLEILQNGLYLIYGQVAPNANYNDVAPFEVRLYKNKDMIQTLTNKSKIQNVGGTYELHVGDTIDLIFNSEHQVLKDNTYWGIILLANPQFIS
modifications: biotinylated in the ELISA
notes: also called hexameric hGITRL IgG1 FP; hexameric GITRL FP

How the values were obtained:
[1] = molecular target: T1, human GITR expressed on cells; test: cell-based or functional assay
[2] = molecular target: T3, recombinant cynomolgus monkey GITR (cynomolgus monkey); test: KinExA, solution equilibrium
T3 construct: also called recombinant cynomolgous GITR; cynomolgus GITR

[3] = molecular target: T2, recombinant human GITR; test: KinExA, solution equilibrium at 25 C

Row | Binder | EC50, luminescence of Jurkat cells transfected with hGITR and an NFκB luciferase reporter [1] | EC50, proliferation of primary human T cells (thymidine incorporation), plate bound FP with anti-CD3 and anti-CD28 [1] [nM] | EC50, release of IFN-γ by primary human T cells, plate bound FP with anti-CD3 and anti-CD28 [1] [nM] | Kd [2] [nM] | Kd [3] [nM]
1 | B1 | 0.289 nM | 0.5 | 0.8 |  | 
2 | B2 | 0.182 nM and ~0.18 nM | 0.3 | 0.6 | 107 | 82

Several values for one entry are separate records, joined by “and”; a condition that tells them apart may be missing. Equal values may be shown once.
